In PubChem BioAssay (NCATS):
The shares of active, inactive and inconclusive entries below differ from those in the screen. For part of these data: Potencies of inconclusive entries are doubtful fits and often do not repeat. Calls of active or inactive are those of the source. Unless noted, calls come from the whole dose curve; as a rule, active = well fitted curve in the direction sought with a large enough effect; inconclusive = small, poorly fitted or top-dose-only effect, or another doubt; inactive = no such curve, though single readings can be large; an effect the other way counts as inactive or inconclusive.

What was measured:
[1] = molecular target: Aldehyde dehydrogenase, mitochondrial (Homo sapiens) (UniProt P05091); test: qHTS for Inhibitors of the Aldehyde Dehydrogenase Family (ALDH2) Confirmatory screens (AID 2061303; active = well fitted inhibition curve with a large enough effect; inconclusive = small, poorly fitted or top-dose-only effect; inactive = no such curve, though single readings can be large or run the other way; title and protocol of this record describe different tests; note: nearly all actives have a fitted effect of over 45% in size); details: ALDH inhibition qHTS; activity change, negative = inhibition: at 45.4 µM (top of the series)
[2] = qHTS for Inhibitors of the Aldehyde Dehydrogenase Family (ALDH1A2, ALDH1A3, ALDH2, ALDH3A1) (AID 2061307); details: ALDH inhibition qHTS; activity change, negative = inhibition: at 50.3 µM (top of the series) unless noted; note: test system not described further here; nearly all actives have a fitted effect of over 50% in size
[3] = molecular target: Aldehyde dehydrogenase, mitochondrial (Homo sapiens) (UniProt P05091); test: qHTS for Inhibitors of the Aldehyde Dehydrogenase Family (ALDH2) Primary screen (AID 2061308); note: nearly all actives have a fitted effect of over 55% in size
[4] = molecular target: Retinal dehydrogenase 2 (Homo sapiens) (UniProt O94788); test: qHTS for Inhibitors of the Aldehyde Dehydrogenase Family (ALDH1A2) Confirmation screens (AID 2061314); details: activity, negative = inhibition: at 45.9 µM (top of the series) unless noted; note: nearly all actives have a fitted effect of over 65% in size
[5] = molecular target: Retinaldehyde dehydrogenase 3 (Homo sapiens) (UniProt P47895); test: qHTS for Inhibitors of the Aldehyde Dehydrogenase Family (ALDH1A3) Primary screen (AID 2061315); details: ALDH inhibition qHTS; activity change, negative = inhibition: at 56 µM (top of the series) unless noted
[6] = molecular target: Aldehyde dehydrogenase 1A1 (Homo sapiens) (UniProt P00352); test: qHTS for Inhibitors of the Aldehyde Dehydrogenase Family (ALDH1A1) Confirmatory screens (AID 2061316); details: activity change, negative = inhibition: at 47.3 µM (top of the series); note: nearly all actives have a fitted effect of over 65% in size
Potency is the fitted concentration of half-maximal effect; tags give direction and shape of the fitted curve.

Row | Compound | Potency [1] | Potency [2] | Potency [3] | Potency [4] | Potency [5] | Potency [6]
1 | Cc1cc(O)cc(Oc2cc(C)c(C(=O)O)c(O)c2)c1 | inconclusive: 8.96 µM [inhibitor, partial curve, poor fit] | inconclusive: 17.9 µM [inhibitor, partial curve] | inconclusive: 31.6 µM [inhibitor, single point] | inconclusive: 25.2 µM [inhibitor, partial curve] | inconclusive: 10 µM [inhibitor, partial curve] | –
2 | CN(C)c1ccc(NC(=O)NS(=O)(=O)c2ccc(Cl)cc2)cc1 | inconclusive: 12.7 µM [inhibitor, partial curve] | active: 6.34 µM | inconclusive: 11.2 µM [inhibitor, partial curve] | active: 10.1 µM | inconclusive: 2.51 µM [inhibitor, partial curve, poor fit] | –
3 | O=S1(=O)Nc2c(ccc3cccnc23)-c2ccccc21 | inconclusive: 17.9 µM [inhibitor, partial curve] | inconclusive: 7.98 µM [inhibitor, partial curve] | inconclusive: 7.08 µM [inhibitor, partial curve] | active: 12.7 µM | inconclusive: 11.2 µM [inhibitor, partial curve, poor fit] | inactive
4 | Cc1cc(C)nc(NC(=S)N2CCN(c3ccc4nccn4c3)CC2)c1 | inconclusive: 5.65 µM [inhibitor, full curve] | inconclusive: 5.04 µM [inhibitor, full curve] | inconclusive: 31.6 µM [inhibitor, single point] | active: 14.2 µM | – | active: 7.12 µM
